In PMC8179877 one finds binding data, which are given here for eleven molecules.

To fix the notation:
B1: OsGSAM fragment R7 (1st-80th amino acid residues) (domain or fragment, UniProt Q6YZE2 1-80)
chain: MAGAAAASAAAAAVASGISARPVAPRPSPSRARAPRSVVRAAISVEKGEKAYTVEKSEEIFNAAKELMPGGVNSPVRAFK
B2: OsGSAM fragment R4 (161th-320th amino acid residues) (domain or fragment, UniProt Q6YZE2 161-320)
chain: MVRFVNSGTEACMGALRLVRAFTGREKILKFEGCYHGHADSFLVKAGSGVATLGLPDSPGVPKGATSETLTAPYNDVEAVKKLFEENKGQIAAVFLEPVVGNAGFIPPQPGFLNALRDLTKQDGALLVFDEVMTGFRLAYGGAQEYFGITPDVSTLGKII
B3: OsGSAM fragment R5 (1st-160th amino acid residues) (domain or fragment, UniProt Q6YZE2 1-160)
chain: MAGAAAASAAAAAVASGISARPVAPRPSPSRARAPRSVVRAAISVEKGEKAYTVEKSEEIFNAAKELMPGGVNSPVRAFKSVGGQPIVFDSVKGSRMWDVDGNEYIDYVGSWGPAIIGHADDTVNAALIETLKKGTSFGAPCVLENVLAEMVISAVPSIE
B4: OsGSAM fragment R10 (401th-478th amino acid residues) (domain or fragment, UniProt Q6YZE2 401-478)
chain: GGHIRGMFGFFFTAGPVHNFGDAKKSDTAKFGRFYRGMLEEGVYLAPSQFEAGFTSLAHTSQDIEKTVEAAAKVLRRI
B5: OsGSAM fragment R8 (81th-160th amino acid residues) (domain or fragment, UniProt Q6YZE2 81-160)
chain: SVGGQPIVFDSVKGSRMWDVDGNEYIDYVGSWGPAIIGHADDTVNAALIETLKKGTSFGAPCVLENVLAEMVISAVPSIE

No constants are given. Whether binding was seen depends on the method and setting. Some binding calls cover weakened binding; strength is not graded here.

The first experiment has as its target OsGSAM, rice glutamate 1-semialdehyde 2,1-aminomutase, full length (rice (Oryza sativa)) (UniProt Q6YZE2). Description: two-hybrid; Matchmaker GAL4 two-hybrid system 3 (Clontech), Y2HGold yeast; GAL4 AD fusion (full length or fragment) co-transformed with the GAL4 BD fusion of full-length OsGSAM; growth on -Ade/-His/-Leu/-Trp plates at dilutions 1, 0.1 and 0.01; 30 mM 3-AT for the combination with the self-activating fusion vector.
On to “OsGSAM fragment R3 (81th-400th amino acid residues) (from UniProt Q6YZE2 81-400) (domain or fragment)”, for which the binding entry was “binds”.

For “OsGSAM fragment R1 (1st-240th amino acid residues) (from UniProt Q6YZE2 1-240) (domain or fragment)”, the binding entry is reported as “binds”. On the same count and under the same terms, next, “OsGSAM fragment R9 (321th-400th amino acid residues) (from UniProt Q6YZE2 321-400) (domain or fragment)”: “binds”; “OsGSAM fragment R6 (321th-478th amino acid residues) (from UniProt Q6YZE2 321-478) (domain or fragment)”: “binds”. With “OsGSAM, rice glutamate 1-semialdehyde 2,1-aminomutase, full length (from UniProt Q6YZE2 1-478) (enzyme)”, the binding entry is on record as “binds”. Still for that read-out and setting: next, “OsGSAM fragment R2 (241th-478th amino acid residues) (from UniProt Q6YZE2 241-478) (domain or fragment)”: “binds”.

The target is the same in another experiment. The experiment is described as above. This is another data set of the same source.
On to B1, for which the binding entry is recorded as “no binding”. Turning to B2, the binding entry is “no binding”.

Take B3: the binding result is “binds”. On the same count and under the same terms, next, B4: “no binding”; B5: “binds”.
